# Results from ChEMBL document CHEMBL4888484, “Replenishing the malaria drug discovery pipeline: Screening and hit evaluation of the MMV Hit Generation Library 1 (HGL1) against asexual blood stage Plasmodium falciparum ,using a nano luciferase reporter read-out” (2022).
# Out of some 4,800 compounds screened, about 420 (8.8%) showed an effect of 50% or more. Some of the results follow.
# Tested on: Plasmodium falciparum
# Assay: Confirmatory screen in NF54 nanoGlo assay, in single point, at 2uM, 72h
# Format: functional, Erythrocyte
# Conditions: timepoint 72 hour
row,SMILES,% Inhibition
1,CCn1cc([C@H](CC(=O)N2CCN(Cc3ccc4c(c3)OCO4)CC2)c2cccc(OC)c2)c2ccccc21,1%
2,Cc1nc2n(Cc3ccc(Cl)cc3)c3ccccc3n2n1,4%
3,O=C(c1cc(-c2ccccc2)n[nH]1)N1CCC(N2CCc3sccc3C2)CC1,21%
4,c1ccc(N2CCN(CCN[C@H]3CCc4cc5c(cc43)CCC5)CC2)cc1,8%
5,O=S(=O)(c1ccco1)N1CC[C@H](Oc2ccccc2)C1,2%
6,Cc1nn2c(C(F)F)cc(-c3ccc4c(c3)OCO4)nc2c1Cl,-5%
7,CC(C)C1(C)CC(=O)N(C(C(=O)O)c2ccccc2)C1=O (centres undefined),-11%
8,Cc1n[nH]c(C)c1NC(=O)CN1CC(C)OC(C)C1 (centres undefined),-6%
9,O=C(Oc1cccc2cccnc12)c1ccc(-c2ccccc2)cc1,2%
10,O=C(Nc1nnc(C2CC2)s1)[C@@H]1Cc2ccccc2O1,-3%
11,O=C(c1ccccc1COC1CCOCC1)N1CCC[C@H](c2nnc[nH]2)C1,2%
12,C=CCNC(=NC)NC1CCN(c2cc(OC)cc(OC)c2)CC1,-2%
13,CC(C)N(CC(C)(C)O)C(=O)Nc1ccc(C(N)=O)c(Cl)c1,-1%
14,COc1ccc(CCNC(=O)c2nnc(Cc3c(F)cccc3Cl)o2)cc1OC,13%
15,CC12CN(S(=O)(=O)c3ccc4c(c3)OCCO4)C3(C(=O)OCc4ccccc4)CC1CCC23C (centres undefined),59%
16,CC[C@H]1CN2C=NC(N3CCN(C(=O)Nc4cc(F)cc(F)c4)CC3)=CC2=N1,35%
17,C=CCNC(=O)c1cc(Br)cc(Br)c1OC,6%
18,Cc1ccccc1S(=O)(=O)c1cc2cc(Br)cc(Br)c2nc1N,0%
19,O=C(Nc1ccc(Cl)c(Cl)c1)Nc1ccc(Cl)cc1NC(=O)Nc1ccc(Cl)c(Cl)c1,65%
20,Cc1ccccc1C(=O)Cc1ncc[nH]1,75%
21,O=C1C2CC2C(=O)N1Cc1ccccc1 (centres undefined),1%
22,CCCC1CCC(c2ccc(-c3noc(-c4ccc(O)c(F)c4)n3)cc2)CC1 (centres undefined),-1%
23,CNCC(=O)Nc1ccccc1C(F)(F)F,-8%
24,O=C(CCc1nc2cccnc2[nH]1)NCCN1CCOCC1,3%
25,Cc1ccc(NC(=O)Nc2c(C3=CCCCC3)c(C)nn2C)cc1C,-12%

row,SMILES,% Inhibition
1,O=C(c1cccs1)N1CCN(C2CCCCCC2)CC1,1%
2,CC1CCN(C(=O)NCC2CCC(F)(F)CC2)CC1n1ccnc1 (centres undefined),3%
3,O=C1NC(=O)C2(CCN(C(=O)c3cc(-c4ccco4)[nH]n3)CC2)N1,-12%
4,COc1ccc(Oc2c(CN(CC3CC3)C(=O)c3ccccc3)c(-c3ccccc3)nn2C)cc1,2%
5,Cn1cc(C(=O)NCC2CCN(S(=O)(=O)c3cccs3)CC2)cn1,-2%
6,COc1ccc(C(=O)N2CCC3(CC2)C[C@@H](O)CCO3)cc1,3%
7,C[C@H]1NC(=O)N(CCc2nc(C(F)(F)F)cs2)C1=O,-18%
8,Nc1cc2c(cc1C1=Nc3ccccc3C(c3ccccc3)(c3ccccc3)N1)OCO2,10%
9,O=C(CC1CCOCC1)N1CCN(C(=O)c2ccco2)CC1,-13%
10,O=C(CC(c1ccccc1)c1ccccc1)N1CC(=O)N2CCc3ccccc3[C@@H]2C1,0%
11,COc1ccc(NC(=O)c2cc(C3CC3)nc3onc(C4CC4)c23)cc1Cl,-3%
12,C=CCS(=O)(=O)NC(=O)c1cc(C)c(C)cc1Cl,-2%
13,COc1ccc(-c2nccn3cc(C(=O)N4CCN(c5cccc(OC)c5)CC4)nc23)cc1,-6%
14,CN(C)C(=O)c1cc2c(s1)CC[C@H](C(=O)NCCN1CCOCC1)C2,6%
15,Cc1nc2ccc(Cl)cc2c(-c2ccccc2)c1C1=NN(S(C)(=O)=O)[C@H](c2ccccc2Cl)C1,-11%
16,O=C1C2ON(c3ccccc3)C(c3ccncc3)C2C(=O)N1c1ccc2ccccc2c1 (centres undefined),7%
17,O=C(NCc1ccc2c(c1)OCO2)c1cccc2c1C(=O)N(C1CCCCC1)C2,-17%
18,Cn1cccc1CNC1CCCCCC1C(N)=O (centres undefined),-3%
19,C[C@@H]1CN(C(=O)NCCc2ccc(C(F)(F)F)cn2)C[C@H](C)O1,-6%
20,CC[C@@H](CN(C)Cc1ccccc1)NC(=O)C1CCN(c2nc3cccnc3n(CC)c2=O)CC1,27%
21,Brc1ccc2c(c1)C1CCCCC1N2 (centres undefined),-6%
22,C#CCOc1ccc(CCNC(=O)N(C)c2c(C)noc2C)cc1,6%
23,CC(C)C[C@@H]1N[C@H](C(=O)NC2CCCC2)Cc2cn(C)c3cccc1c23,4%
24,c1cc([C@@H]2CCCCN2c2nc(C3CC3)ns2)n[nH]1,2%
25,O=C1[C@@H]2[C@H](Cc3c[nH]c4ccccc34)N[C@]3(C(=O)Nc4ccccc43)[C@@H]2C(=O)N1c1cccc(C(F)(F)F)c1,7%

row,SMILES,% Inhibition
1,Fc1ccc(COc2ccc3ccccc3c2CNc2ccc(Br)cc2)cc1,2%
2,Cc1cccc(Oc2nc3ccccc3n3c(=O)n(CC(=O)NCc4ccc(Cl)cc4)nc23)c1C,-10%
3,Cc1ccc(NCc2ccc(OCc3cccc4ccccc34)c(Br)c2)cc1,2%
4,Fc1cccc(-n2nc(-c3ccccc3F)cc2-c2ccccc2F)c1,-6%
5,Cc1ccc(C(=O)N2CCC(N3C(=O)[C@H]4CCCN4C3=O)CC2)cc1,-9%
6,Cc1ccc(CS(=O)(=O)NC(=O)N2CCC(c3ccccc3)CC2)cc1,3%
7,Cc1ccccc1CC(=O)Nc1ccc(-c2nc3ncccc3o2)cc1,1%
8,Cc1cc(C)c(C(=O)Cn2nc3ccc(-c4ccc(Cl)cc4)nn3c2=O)c(C)c1,4%
9,COC(=O)C(NCc1cnc(C)s1)C(C)O (centres undefined),7%
10,COc1ccc(Cl)cc1S(=O)(=O)N(C)[C@H]1CCc2n[nH]c(=O)n2CC1,-5%
11,O=S(=O)(NCc1ccc(C(F)(F)F)nc1N1CCC(C(F)(F)F)CC1)C(F)(F)F,4%
12,Cc1cc(C)c(NC(=O)CCn2c(=O)c(C)nc3cc(C)c(C)cc32)c(C)c1,3%
13,O=C(Nc1nccs1)c1ccc2c(c1)CC(c1ccccc1)(c1ccccc1)OC2=O,-3%
14,CN(C(=O)CN(C)S(=O)(=O)c1cccnc1)C1CCCC1,-5%
15,O=S(=O)(Oc1ccc(Cc2ncc(C(F)(F)F)cc2Cl)cc1)c1ccccc1Cl,2%
16,COCCN(Cc1c(-c2cccc(C)c2)noc1N1CCOCC1)C(=O)C1CCCC1,-5%
17,COc1ccccc1[C@H]1CC(O)=Nc2c1ncn2-c1cc(F)ccc1F,-3%
18,CC1(C)CC(C(=O)Oc2ccccc2)CC(C)(C)N1,-6%
19,O=C(Nc1cccc(C(F)(F)F)c1)S(=O)(=O)c1ccccc1,-13%
20,Cc1cccc(CN2CCC[C@H](C(=O)c3ccc4c5c(cccc35)CC4)C2)n1,63%
21,CN1C(=O)[C@@H]2CCCCN2c2ccc(C(=O)N3CCN(c4cccc(Cl)c4)CC3)cc21,4%
22,CCc1c([C@H](C)S(=O)(=O)c2ccccc2)[nH]c(=O)n1Cc1cccs1,-9%
23,CCNC(=O)NCCOC(=O)c1cccc(C)c1Cl,1%
24,CC(C)N1CCO[C@H](C(=O)Nc2c[nH]nc2-c2ccccc2)C1,-5%
25,C[C@H]1CCCN(c2nc(-c3ccccn3)nc3ccccc23)C1,97%

row,SMILES,% Inhibition
1,COc1ccc(CC(=O)N2CCN(c3cnn4cnnc4c3)CC2)cc1,1%
2,CCOC(=O)NC(c1ccccc1F)C1CCCCCCC1=O (centres undefined),-9%
3,CC(C)(C)[C@@H](O)CCNC(=O)c1ccco1,-3%
4,CCOc1ccc(NC2=NC(=O)[C@@H](C#N)C3(CCN(Cc4ccccc4)CC3)N2)cc1,4%
5,C[C@@H](Cn1c(=O)[nH]c2ccccc2c1=O)N(C)c1ccccc1,-3%
6,Cc1c(CN(C)C(=O)Cn2ncc(Br)c2C)cnn1C,-7%
7,Cc1ccc(C)c(/C=C/c2nnc(C)o2)c1,-12%
8,CCc1nc(C(=O)N2C[C@@H]3CCCN(C(=O)c4coc(CC)n4)[C@@H]3C2)co1,0%
9,O[C@H](COCc1ccccc1)CN(Cc1c(-c2ccccc2F)noc1N1CCOCC1)C1CC1,2%
10,O=C(O)CCNC(=O)c1ccc(NC(=O)c2cnc(-c3ccsc3)s2)cc1,0%
11,CCCC[C@H](Oc1ccc(C(C)(C)CC)cc1C(C)(C)CC)C(=O)Nc1ccc(NC(=O)C(F)(F)C(F)(F)C(F)(F)F)c(O)c1,30%
12,CC(=O)c1cccc(NC(=O)Cc2c(C)nc3nc(C4CCCCC4)nn3c2C)c1,5%
13,CCCc1cc(NC(=O)N(CC)CCc2nccs2)n(C)n1,2%
14,O=C(CCS(=O)(=O)c1ccc2ccccc2c1)Nc1ncn(Cc2c(F)cccc2Cl)n1,2%
15,CC(C(=O)Nc1nccs1)N1CCCC(c2ccn[nH]2)C1 (centres undefined),50%
16,Cc1nnc([C@@H](NC(=O)Nc2ccccc2F)C(C)C)[nH]1,3%
17,CC1CC(C)CN(C(=O)c2cc(NC(=O)c3ccccc3)n(C)n2)C1 (centres undefined),-9%
18,COc1ccc(C(=O)CN2C=CCC=C2c2nc(-c3ccc(Cl)cc3)cs2)cc1,72%
19,CC(C)CC(=O)N=c1nc(S)ss1,-4%
20,COc1ccc(C2=NC3(CCN(Cc4ccccc4)CC3)N[C@H](c3cc(Cl)ccc3O)C2)cc1,24%
21,CN1C(=O)N(c2cc(Cl)cc(Cl)c2)C(=O)[C@]12CN(c1ccc(C(=O)O)cn1)C[C@H]2c1ccc(C#N)cc1,5%
22,Cc1cc(NC(=O)c2ccc[nH]2)ccc1Oc1ccncc1,-5%
23,Cc1cc2nc(C)c(=O)n(Cc3ccc(C(=O)N4CCC(Cc5ccccc5)CC4)cc3)c2cc1C,0%
24,COc1cccc(C(=O)N2C[C@@H]3C[C@H](NC(=O)c4ccccc4)[C@H]2C3)c1OC,-1%
